In PMC6919601, “Identification of Plasmodium dipeptidyl aminopeptidase allosteric inhibitors by high throughput screening” (PLoS ONE, 2019):
The whole screen tested about 110,000 compounds, of which about 230 (0.21%) showed an effect of 50% or more. The list shows a part of the results.

Biological target: DPAP1 (Plasmodium falciparum, UniProt Q8IIJ9)
Experiment: primary screen, percent inhibition; read by cleavage of a fluorogenic dipeptide substrate; higher = more effect of the substance
Parameters: species or system P. falciparum D10 trophozoite lysates; single well
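Further: 30 min substrate incubation versus DMSO and 10 µM JCP410 controls.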

DPAP1, sequence (Q8IIJ9 whole entry, looked up): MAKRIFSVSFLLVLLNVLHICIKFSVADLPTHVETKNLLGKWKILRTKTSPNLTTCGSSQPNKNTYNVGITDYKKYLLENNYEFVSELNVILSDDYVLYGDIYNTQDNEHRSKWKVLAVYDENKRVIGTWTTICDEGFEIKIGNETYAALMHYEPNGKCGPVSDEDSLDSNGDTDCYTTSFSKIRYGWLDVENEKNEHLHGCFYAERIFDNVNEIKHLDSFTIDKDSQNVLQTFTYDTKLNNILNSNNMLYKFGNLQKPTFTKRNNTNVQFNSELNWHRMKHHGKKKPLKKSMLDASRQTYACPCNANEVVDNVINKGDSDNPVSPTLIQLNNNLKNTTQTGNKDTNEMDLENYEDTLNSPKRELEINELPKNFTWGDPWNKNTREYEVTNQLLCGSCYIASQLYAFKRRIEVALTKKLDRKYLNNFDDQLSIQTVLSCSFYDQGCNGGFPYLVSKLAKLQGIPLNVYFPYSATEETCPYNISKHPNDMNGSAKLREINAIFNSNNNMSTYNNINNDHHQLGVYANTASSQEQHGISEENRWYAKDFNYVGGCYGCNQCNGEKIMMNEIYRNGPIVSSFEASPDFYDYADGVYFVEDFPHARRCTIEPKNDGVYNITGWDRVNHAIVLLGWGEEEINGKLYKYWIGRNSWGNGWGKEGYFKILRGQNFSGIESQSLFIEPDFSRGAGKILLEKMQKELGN

In order of rising “% Inhibition @ 10 uM” value:
1. CCOC(=O)c1conc1-c1c[nH]c2ccccc12  -9.1%
2. CC(C)C(=O)NC(c1ccc(Cl)cc1)c1ccc2cccnc2c1O (stereo not drawn)  -8.88%
3. CC1CCN(C(=O)Cn2cc(/C=C(\C#N)C(=O)NC3CC3)c3ccccc32)CC1  -8.85%
4. COc1cc(N2C(=O)c3ccccc3C2=O)ccc1-n1nc(C)cc1C  -7.5%
5. COc1cccc(C(=O)Nc2nnc(S(=O)(=O)N3CCCCC3)s2)c1  -7.29%
6. CC(=O)Nc1ccc(NC(=O)c2ccc(F)cc2)cc1  -7.06%
7. Cc1ccc(CNS(=O)(=O)c2cc(-c3cc(C)no3)ccc2C)cc1  -7.06%
8. Cc1ccccc1CNC1CCCCC1  -6.92%
9. COc1ccc(C)cc1NC(=O)c1cnn(C)c1  -6.41%
10. Cc1ccc(S(=O)(=O)Cc2nc(-c3ccc(C(=O)NCC4CCCO4)cc3)oc2C)cc1 (stereo not drawn)  -6.31%
11. Cc1ccc(C)n1-c1nnc(N2CCC(C(=O)NC(C)c3ccc4c(c3)OCCO4)CC2)s1 (stereo not drawn)  -5.89%
12. Cc1ccccc1C(=O)Nc1ccccc1C(N)=O  -5.7%
13. Cc1ccc(C)c(-c2csc(Nc3ccc(Cl)cc3)n2)c1  -5.65%
14. CCN1CCN(Cc2ccc([N+](=O)[O-])o2)CC1  -5.57%
15. CC(C)NC(=O)CCN1C(=O)c2ccccc2C1=O  -5.49%
16. Fc1ccc(N2CCN(Cc3ccc(C(F)(F)F)cc3)CC2)cc1  -5.41%
17. COc1ccc(C(=O)NC(c2ccccc2)c2ccccc2)c(OC)n1  -5.03%
18. CCN(CC)S(=O)(=O)c1ccc(NC(=O)COc2ccc(Cl)cc2Cl)cc1  -4.86%
19. CCCCNC(=O)CS(=O)(=O)Cc1nc(-c2ccccc2Cl)oc1C  -4.69%
20. Cc1cc2oc(C(=O)NCCc3ccc(S(N)(=O)=O)cc3)c(C)c2cc1C  -4.66%
21. CS(=O)(=O)N1CCN(c2ccc([N+](=O)[O-])cc2)CC1  -4.43%
22. CC12CN3CC(C)(CN(C1)C3c1cc(Br)ccc1O)C2=O (stereo not drawn)  -4.35%
23. Fc1ccccc1-c1nnc(-c2ccccc2Cl)o1  -4.3%
24. CCOC(=O)c1cc(NC(=O)N2CCN(CC)CC2)c(C)nc1C  -4.19%
25. O=C(NCCc1ccccc1)C(Cc1ccccc1)N1C(=O)c2ccccc2C1=O (stereo not drawn)  -4.06%
26. COc1ccc(-c2noc(CSc3nnc(C)n3-c3ccc(C)c(C)c3)n2)cc1  -4.02%
27. COc1ccc(/C=C2\SC(N3CCCCC3)=NC2=O)cc1OC  -3.72%
28. O=C(Nc1cccc(Cl)c1Cl)[C@@H]1C[C@@H]1c1ccccc1  -3.71%
29. Cc1ccn2c(=O)c(C(=O)NCc3ccc4c(c3)OCO4)cnc2c1  -3.44%
30. COCC(=O)Nc1nc2nc(C)c(Cl)c(O)n2n1  -3.08%
31. c1ccc(-c2csc3nc4ccccc4n23)cc1  -2.8%
32. CCCCN(C)C(=O)c1cc(-c2ccccn2)nc2ccc(S(=O)(=O)N3CCC(C)CC3)cc12  -2.72%
33. CCOC(=O)N1CCN(C(=O)c2ccc(-c3ccccc3)cc2)CC1  -2.65%
34. COCc1[nH]nc2c1C(c1ccc(OC)c(OC)c1)C(C#N)=C(N)O2 (stereo not drawn)  -2.64%
35. CSc1ncc(C(=O)NCc2cccc(Cl)c2)c(C(F)(F)F)n1  -2.48%
36. Cc1cc(C)c2c(CC(=O)N(Cc3ccco3)C3CCS(=O)(=O)C3)coc2c1 (stereo not drawn)  -2.4%
37. O=c1oc(-c2ccc(Br)cc2)nc2sc3c(c12)CCCC3  -2.36%
38. COc1ccc2c(CNCc3ccccc3)c(C(=O)O)[nH]c2c1  -2.1%
39. COc1ccc(NC(=O)c2nc3nc(-c4ccccc4)cc(C(F)(F)F)n3n2)cc1OC  -1.99%
40. O=S(=O)(Cc1ccccc1)Nc1ccc(F)cc1  -1.96%
41. O=C(COc1ccc(Br)cc1Cl)Nc1ccc(S(=O)(=O)N2CCCC2)cc1  -1.95%
42. O=C(NCc1ccc2c(c1)OCO2)C1CC(=O)N(CCc2ccccc2)C1 (stereo not drawn)  -1.79%
43. O=C1C(=O)N(CCc2ccccc2)c2ccccc21  -1.74%
44. O=C(Nc1nnc(S(=O)(=O)N2CCOCC2)s1)c1ccccc1  -1.72%
45. O=C(NCc1ccccc1Cl)c1cc2c(=O)oc3ccccc3c2s1  -1.51%
46. Cc1cc(NS(=O)(=O)c2ccc(NC(=O)COc3c(C)cccc3C)cc2)no1  -1.44%
47. CC1CCc2c(sc(NC(=O)COc3ccc(Cl)cc3Cl)c2C(N)=O)C1 (stereo not drawn)  -1.36%
48. CCOc1ccc(C(=O)C2=C(O)C(=O)N(c3nnc(C)s3)C2c2ccccc2F)cc1 (stereo not drawn)  -1.25%
49. Cc1sc2ncn(CC(=O)NC3CCCCCC3)c(=O)c2c1S(=O)(=O)N1CCOCC1  -1.2%
50. C=C(C)Cn1c(COc2cccc(OC)c2)nc2ccccc21  -1.15%
51. CCOc1ccc(NC(=O)c2ccc(C)o2)cc1  -1.02%
52. COc1ccc(Cl)cc1C(=O)Nc1sc2c(c1C(N)=O)CCC2  -0.996%
53. CC1CCN(C(=O)CCSCCC(=O)N2CCC(C)CC2)CC1  -0.95%
54. Cc1ccc(CNC(=O)C(C)n2nc(C)c3c(C)n(-c4ccccc4)nc3c2=O)o1 (stereo not drawn)  -0.665%
55. FC(F)(F)c1cc(-c2ccco2)nc(NCCc2ccccc2)n1  -0.503%
56. CCOC(=O)N1CCN(C(=O)C2CC(c3cc(OC)c(OC)c(OC)c3)=NO2)CC1 (stereo not drawn)  -0.431%
57. COc1cc(OC)cc(-c2nnc(NC(=O)c3ccc(S(=O)(=O)N4CCCC(C)C4)cc3)o2)c1 (stereo not drawn)  -0.363%
58. C1CCN(CCCNC2C3CC4CC(C3)CC2C4)C1 (stereo not drawn)  -0.192%
59. Cc1ccc(O)c(C2=NN3C(C2)c2ccccc2OC3c2cccs2)c1 (stereo not drawn)  0.0719%
60. Cc1ccc(OCC(=O)N(C(C)C)C(C)C)cc1C  0.13%
61. C=CCOC(=O)c1sc(N2C(=O)c3oc4ccccc4c(=O)c3C2c2cccs2)nc1C (stereo not drawn)  0.189%
62. O=C(NCc1cccnc1)C1CCCN(c2nnc(N3CCCC3=O)s2)C1 (stereo not drawn)  0.413%
63. COC(=O)C1=C(C)NC(=O)/C1=C\c1cc2c(cc1Br)OCO2  0.484%
64. CC(=O)c1cccc(NC(=O)CN(Cc2ccc(C)cc2)S(=O)(=O)c2ccc(C)cc2)c1  0.795%
65. Cc1ccc(C2=NC(=O)/C(=C/c3cc4c(cc3Br)OCO4)S2)cc1  0.884%
66. CCOC(=O)c1c(C)nc2n(CCN(CC)CC)c3ccccc3n12  1%
67. O=C(NCc1ccc2c(c1)OCO2)C1C2C=CC3(CN(Cc4ccccc4Cl)C(=O)C13)O2 (stereo not drawn)  1.07%
68. Cc1nonc1OCC(C)(COc1nonc1C)NC(=O)c1ccccc1  1.38%
69. Cc1ccnc(NC(=O)COc2ccc(C)cc2C)c1  1.38%
70. Cc1c(C(=O)NCCc2ccc(S(N)(=O)=O)cc2)sc2nc(-c3ccccc3)cn12  1.55%
71. COc1ccc2c(c1)cc1c(=O)n(CC(=O)NCCN3CCOCC3)nc(C)n12  1.68%
72. Cc1cc(Cl)ccc1OCC(=O)Nc1ccc(CC#N)cc1  1.72%
73. CCO/C(O)=C1/C(C)=Nc2ncnn2C1c1ccccc1OC(F)F (stereo not drawn)  1.73%
74. O=S(=O)(Nc1ccccc1CO)c1ccccc1  1.89%
75. COc1ccc(C(=O)N2CCN(c3ccccc3OC)CC2)cc1  1.9%
76. CCc1cccc(CC)c1NC(=O)Cn1cnc2ccccc2c1=O  2.09%
77. CN1CCN(CCCNC(=O)C2CCN(S(=O)(=O)N3CCC4(CC3)OCCO4)CC2)CC1  2.18%
78. CCC1SC2=NC(C)=C(C(=O)OC)C(c3ccc(OCc4ccccc4)c(OC)c3)N2C1=O (stereo not drawn)  2.24%
79. OC(CNC1CCCCC1)Cn1c(C(F)(F)F)nc2ccccc21 (stereo not drawn)  2.31%
80. Cc1cc(C)nc(NC(=N)N2CCC(C)CC2)n1  2.36%
81. COc1ccccc1N1CCN(C(=O)Cc2ccc(Br)cc2)CC1  2.44%
82. CSC1=C(C#N)C(c2ccc(Br)cc2)CC(=O)N1 (stereo not drawn)  2.58%
83. CC(=O)c1cc2c(cc1NC(=O)C1CCCCC1C(=O)O)OCO2 (stereo not drawn)  2.67%
84. Cc1cccc(OCCSc2nc(-c3ccccc3F)nc3cc(=O)[nH]n23)c1  2.82%
85. CCCCOc1ccc(CC(=N)N)cc1Cl  3.25%
86. CCOC(=O)N1CCN(S(=O)(=O)c2cc(Cl)c(C)cc2OC)CC1  3.58%
87. Cc1ccc2oc(=O)n(Cc3ccccc3OC(C)C)c2c1  3.92%
88. CCOC(=O)c1cc(S(=O)(=O)N2CCC(Cc3ccccc3)CC2)cn1C  3.92%
89. CC1(C)CC(=O)C2=C(C1)N(CCc1ccccc1)C(=O)C2(NC(=O)c1ccc(F)cc1)C(F)(F)F (stereo not drawn)  4.05%
90. Cc1cccc(C)c1NC(=O)CSc1nc2ccc(N)cc2s1  4.08%
91. N#Cc1ccc(S(=O)(=O)N2CCC(N3CCCCC3)CC2)cc1  4.18%
92. C=CCc1cccc2cc(C(=O)NCc3ccc4c(c3)OCO4)c(=O)oc12  4.61%
93. COc1ccc(CC(=O)N2CCN(Cc3noc(CCC(=O)N(C)C4CCCCC4)n3)CC2)cc1  5.61%
94. CCCn1c2ccccc2c2cnn(CC(=O)NCCN(Cc3ccco3)C(C)CC)c(=O)c21 (stereo not drawn)  5.92%
95. Cc1ccc(N(C(=O)c2cccc(F)c2)c2nc(C(F)(F)F)c(-c3ccc(Cl)cc3)s2)c(C)c1  6.31%
96. O=C(Nc1ncc(-c2ccccc2)s1)c1ccccc1  7.99%
97. CCc1n[nH]c(SCC(=O)c2ccc(O)c(O)c2)n1  10.1%
98. CCC(C)C(C(=O)O)N1C(=O)NC2NC(=O)NC21 (stereo not drawn)  13.5%
99. O=C(Nc1ccc(Cl)cc1C(=O)O)c1ccc(N2C(=O)c3ccccc3C2=O)cc1  19.3%
